Test results: the supplement of paper PMC12632987
Whole data set: some 4,500 sequences, median “median log2 fold change of GCK-ALFA target abundance (FLAG IP / Myc IP barcode read proportion)” near 0.078, cut for the lowest 2% near -0.6. The list shows a part of the results.

B1: GBRAP_160_4407 (protein)
chain: SEALKETAERILEAVKDELDLLLELGKIDPKAAAGLLEGTVLLEMFEDDSLTEEQEEKLEELAERLAERLEKLLKEEGEMTEEIRKELLEEAKRGLEEII
B2: GBRAP_160_4237 (protein)
chain: SAELEALRKDITDELELLLDVLLESPKSNWRAYARAFAGDIVQLVIEDPNASDETEEKVDELAEEMVEDLVAAKDASPEEIAALLAEYAERIVATVAKEL
B3: GBRAP_160_4046 (protein)
chain: SEKVKAAREESRALFAEAAAMMEDLSPEEAAVLMEVTVGEAIMELVERGIEITPEIDAVVDEARARRKAFLADPTTTREEVIAALRELEAALAAALDAME
B4: GBRAP_139_3756 (protein)
chain: SATAAAAARLAALVADPATTLEQIVAAVEEAAKTLDEEGIKAVLAALAAALVSQPVERIEEIEDAVLEILKKEGKSEDVIDFAEGEFDGAAALSAAREEE
B5: GBRAP_95_7067 (protein)
chain: NDDELVLLDDAEIAETLAELGDAEGAAEAIERALEAAAKLPELTPEQQAALARLLDVLERIAPKIPKERALELAERLRELATDPELQARAEELIEEIRKR
B6: GBRAP_52_6198 (protein)
chain: MREEARRLAEAVFEAVKAGDLEKARELLRELARKKDEELIRLFAEEMARLALEVPDEDLDYVFETAELAEEVFEEEGVDEAIADDFIARVAAALYKREQA
B7: GBRAP_83_6908 (protein)
chain: AEEITVVATGDRAVAAVDAVIDLTKEEGKDVDVEILATPADFDKVLAAVERLAEAGVEVDLTVYMRGATPEEAAALRARLEAIAARHGVDIDVEVVLLEE
B8: GBRAP_95_7021 (protein)
chain: EDDQLAADSDAEVLETAVDLGDEAAARAAARRLAATVAADPSVRFPPDLSPAAVRVVIEAAREEFDRETAARLLERLAASAADPEVRALARAALAEVRAE
B9: GBRAP_184_5350 (protein)
chain: TTLEVVIEADTVDAAIAQLNAAAAEAAAAGAGLNVLIKVPINTVADAEKLMAALAAAAAAGVLTGTVGIEGVSSDEAIIDTLVDGADAAGIRVVLALDEE
B10: GBRAP_84_7008 (protein)
chain: SRREERLALIEEILARSSIELRRLLLAYLILANDNEGATLALQALLAEDPEAAAEALDLATEAYEEGKEEEVEKRLLEEAAKEGEEVRALVERLLELIRS
B11: GBRAP_57_6476 (protein)
chain: SAKKAELEAAKARALALIRAGAPEEEIREALSEFLSLLSKDSLLLLLAYMGVDARADDPKEVLVEKATEALLEVLRTEGPERAERIIEDAAAEDLEELEE
B12: GBRAP_78_6730 (protein)
chain: ELKEKLEEALEVAAEAARLAVHRVSNEVIAEIVEALSHLHEALELVEEGGPKEEILEELEKALEHLKKALELLPESAEEIRKLVEEAIKLVKEAIKLVKK
B13: GBRAP_160_4093 (protein)
chain: SEKVEKIIKEIKELEEETKKDIEGENIEQRATILRGFGGDVLMLLFESGVVPDEVEDFADKEFDALVAKVEANPELTLEEIKALLDEVVDKVIKKIKEKG
B14: GBRAP_11_2806 (protein)
chain: KKEKLKELAKLLEEAAKKLDELLEKGTDDKELLEEIEKLLEEAEKLAKELGDKDLIKLVEIAKELVKKAKEDPANAEEYLQLARATLRVAEGQVLLLIEE
B15: GBRAP_52_6151 (protein)
chain: AAARAAAYAREFVAAVRAGDEEKARAIMKEIAATLDDEEIALFLREVARLVAGLSPEDRERVVEAVLEFEDIAVAAGHDEDILSYETARVAGAAYEALQR
B16: GBRAP_106_2562 (protein)
chain: SKLDELKAFLEEKANEAFATVEAVTQAIVDRFGVDRAEAEAAVRAHALAYVNWKLTQKAKELGINNPEMMKAIEEVMRANRDKSKEEIIAKAKAVLDKHL
B17: GBRAP_125_3044 (protein)
chain: GMEEAIEALKELAKIFGLSEEEIEELAKLAKEFGVKGALIALLLAEGEEELAELAAKLSEEAVKEVLKKFLEWIKENPNITKEEAIEKLKELLKEALKKE
B18: GBRAP_184_5154 (protein)
chain: KVLEFVIKAKNLEELKKKLEEIEEAAKKEKAKLIILLDVEKLTKEMVDELAKRVKEMKDKGYVKEVVVGVDADLTEEMVDYVLKKFDEAGAKVAIALDEE
B19: GBRAP_52_6084 (protein)
chain: MKEKIEKTAKEIYEAIKAGDKEKALELIKKAVEEFSKEEIKEMLELTAKRVASLGDDAHELFVDILDEAEDILIEAGISEDDALLIVGSAEAALAKAVAA
B20: GBRAP_43_5786 (protein)
chain: SEELVEGALETARLLFEEPSISQEQKVRAAKAAFDLAADEGIDNREAIRAVVEAAAASLDKESLEELRDHALELAERYPELRETFLEAAELLEAAIKALE
B21: GBRAP_160_4083 (protein)
chain: SAAYKALIAEVTAIFDEAEEMMEGVTREEAVAIALVALGEVALLIEEEEALSEEDKETLLAVVDEAEREVRAAADATVEEIKALLRRHRDRLVATIKALD
B22: GBRAP_78_6633 (protein)
chain: EVEELLDKAIEELDKAARLAKKLPKEKQNEVLDLIVDAMSYILEAEEEGFDLKLLEEALKKVEEAIKEVKKLDLPEAKELLKELEKAKELLKKAIELVKK
B23: GBRAP_166_4881 (protein)
chain: MEEKLVEETLKKLKELIEKASKLNPIEQIDKYIEIAELLKKAREEGLSEEKLLEIIKETLRLTHEAGLNPRQLLGVLIDIAELSEEEIDELEEEIERLEK
B24: GBRAP_52_6114 (protein)
chain: MEAAAAAAVDEVLALVRAGDLDAARARLKEIAATWDDAELEVLAAALAARAAAAPAADLDAVWRLAEMAADELEEAGRDEALADLLLARTAAALAAREAA
B25: GBRAP_26_5474 (protein)
chain: VEEEVEAALKEMEKLLKELLDPETAAAATASAFTIVEEAVEEMKKNAKDKEKLKKAAEKAVKEIAADLETLGVDADTRAKIVAKAKAELEKIVKAIEKEA
B26: GBRAP_196_5418 (protein)
chain: DALEEIKKLEEESKKETEGIKESDYTIVANITPENLEEEVKKTAEIAKDLNNPTIELVHPGDLEEILKALKKLKEELKKKGVISEIIVVSEALEEAEEKA
B27: GBRAP_186_5377 (protein)
chain: EEKLEEKLDEIIDKLEKEGYRVIVIDTIEELTPEEKEAIERDIEAAGELAKETGKKIALVIPFKGTEEEVKEAKAFIEELNKKAEEESGLKVVLAAEVVE
B28: GBRAP_78_6622 (protein)
chain: ELEELLDEAIEKIGRAAKLALKLKTPLADELLGELVDAASELVEAEEKGGDLEELKEAREELKKALKIAKELGNEELEKELKEALKLVEEAIKLVEEKKK
B29: GBRAP_184_5172 (protein)
chain: MVEEFEIEVKNEEELKEKLDKIEEAVKGKKAKLVVIVKAEKITEEMARVLMERLKRMKEAGYVTDVLVDIEGEVSEETIDVLVKLADEAGVKLVIAIPEE

target: GABARAP, O95166; assay: median log2 fold change of GCK-ALFA target abundance (FLAG IP / Myc IP barcode read proportion) (log2 ratio); each designed protein is fused to an ALFA-tag nanobody in HEK293 cells to bring the named protein to FLAG-tagged glucokinase (GCK); Myc marks an untargeted standard; higher = target protein stabilised (more abundant); settings: target protein: 3xFLAG-MCP-GCK-ALFA reporter; HEK293 landing pad (RPLP)
How it was run: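 An ALFA-nanobody-fused binder library was recombined into HEK293 landing-pad cells and induced with 2 μg mL^−1 doxycycline. Cells were transfected with a plasmid expressing a FLAG-tagged target and a Myc-tagged standard. After 48 h, lysates underwent anti-FLAG and anti-Myc immunoprecipitation, and circular RNA barcodes were reverse transcribed, amplified and sequenced. Target abundance is the per-binder median log2 ratio of FLAG to Myc barcode read proportions. Barcodes needed ≥10^−7 proportion in both replicates, binders ≥3 barcodes per replicate, and a 10^−6 pseudocount was added; the two replicates were pooled.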

Chain of GABARAP, O95166 (O95166 whole entry, the tested form may be a part): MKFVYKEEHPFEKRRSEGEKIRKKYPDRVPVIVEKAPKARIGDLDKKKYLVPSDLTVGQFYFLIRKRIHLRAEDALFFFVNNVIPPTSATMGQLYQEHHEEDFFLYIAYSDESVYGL

Binder | median log2 fold change
B1 | -0.289
B2 | -0.318
B3 | -0.101
B4 | 0.18
B5 | 0.261
B6 | -0.0387
B7 | 0.0204
B8 | 0.211
B9 | -0.0764
B10 | -0.393
B11 | 0.266
B12 | 0.00114
B13 | 0.247
B14 | -0.142
B15 | 0.0301
B16 | -0.133
B17 | 0.19
B18 | -0.0211
B19 | -0.732
B20 | 0.296
B21 | -0.332
B22 | 0.435
B23 | 0.316
B24 | -0.0124
B25 | 0.241
B26 | 0.096
B27 | 0.18
B28 | 0.126
B29 | 0.178
